Data from PubChem BioAssay AID938 (National Center for Advancing Translational Sciences (NCATS), 2007).
Several values for one entry are separate records, joined by “and”; a condition that tells them apart may be missing. Identical values can stand only once. Out of some 73,000 compounds screened, about 1,800 (2.5%) were called active. Inconclusive results (about 13%) are left out. The call rests on the fitted dose curve; in most records, active means well fitted activation curve with a large enough effect; inconclusive means small, poorly fitted or top-dose-only effect; inactive means no such curve, though single readings can be large or run the other way. The entries are a selection whose mix differs from that of the whole data set. The source holds several records for some structures; these can differ, active in one and inactive in another.

Assay: qHTS Assay for Agonists of the Thyroid Stimulating Hormone Receptor: Activators of Intracellular cAMP Concentrations in Parental HEK 293; further: nearly all actives have a fitted effect of over 55% in size; on activation: % of control where 0% means no effect
Conditions: parental HEK293 CNG cAMP sensor, membrane potential fluorescence; series mostly up to 57.1 µM; activation: at the top concentration
Source text: NIH Chemical Genomics Center [NCGC]
NIH Molecular Libraries Screening Centers Network [MLSCN]
PI Name: Dr. Marvin Gershengorn
This cell based assay utilized a cyclic nucleotide gated ion channel (CNG) as a biosensor for cAMP induction. HEK 293 cells stably expressing the modified CNG were purchased from BD biosciences (http://www.atto.com/products/actone/features_benefits.shtml) . Stimulation of cAMP production causes the CNG to open and subsequent membrane depolarization to occur. A fluorescent membrane potential dye (BD biosciences) was utilized to detect cAMP stimulation in cells.
The cells were maintained in DMEM medium (Invitrogen) containing 10 % FBS (Hyclone), 100 units/ml Penicillin, 100 ug/ml Streptomycin (Invitrogen), and 250 ug/ml Geneticin (Invitrogen) and 1 ug/ml Puromycin (Invitrogen) at 37C in 5% CO2. This assay was used as a counterscreen to "qHTS Assay for Agonists of the Thyroid Stimulating Hormone Receptor", to control for compounds signaling through endogenous receptors and other targets of HEK 293 cells.
NCGC Assay Protocol Summary:
High Throughput Screening. Freshly passaged cells were dispensed into 1536-well assay plates at 4 ul/well in DMEM containing phenol red (Invitrogen), 10% FCS (Hyclone), and 100 units/ml Penicillin, 100 ug/ml Streptomycin (Invitrogen) and incubated at 37 C with 5% CO2 for 20 to 36 hrs before the robotic screening. The screen was initiated by addition of 4 ul/well membrane potential dye containing 100 uM RO 20-1724 (Sigma Aldrich), followed by 60 min incubation at room temperature to allow for dye equilibration across the cell membrane. 23 nl/well compound or control was then added to the assay plates, which were incubated for additional 30 min before reading a Envision fluorescence plate reader (Perkin Elmer) in bottom-read mode for fluorescence intensity (emission at 590 nm).
Keywords: cAMP, CNG Ion Channel, quantitative high throughput screening, qHTS, HTS, probe identification, CNG, cAMP, cyclic nucleotide gated ion channel PubChem
Potency means the concentration at half of the fitted maximal effect.

Compound | activation | Potency
C=C[C@@H]1CN2CC[C@@H]1C[C@H]2[C@H](O)c1ccnc2ccccc12 | inactive: 7.15% | 
C=C[C@H]1CN2CC[C@@H]1C[C@H]2[C@@H](O)c1ccnc2ccccc12 |  | inactive
CCOc1ccc(N)cc1 | inactive: 39% | 
Nc1c(Br)cc(Br)cc1CNC1CCC(O)CC1 (stereo not drawn) | inactive: 8.4% [at 25.6 µM] | 
CCCN1CCO[C@@H]2c3cc(O)ccc3OC[C@H]21 | inactive: 5.58% | 
COC(=O)Cc1cc(=O)n(-c2ccccc2)[nH]1 | inactive: -39.1% | 
CC(C)N(CC[C@@](C(N)=O)(c1ccccc1)c1ccccn1)C(C)C |  | inactive
CN(C)C(=O)Cl | inactive: 14.4% | 
N#Cc1ccccc1 | inactive: 12.3% | 
ClCCCCl | inactive: -4.27% | 
CC(C)CCn1c(N)c(C(=O)OCC2CCCO2)c2nc3ccccc3nc21 (stereo not drawn) |  | active: 20 µM
CC(=O)C(C)=O |  | inactive
C[C@]12CCC(=O)C=C1CC[C@@H]1[C@@H]2CC[C@]2(C)C(=O)CC[C@@H]12 |  | inactive
O=S(=O)(O)F | inactive: -24.4% | 
C/C=C/CC#N | inactive: -96.7% | 
Oc1ccc2c3c1O[C@H]1c4[nH]c5c(c4C[C@@]4(O)[C@@H](C2)N(CC2CC2)CC[C@]314)C[C@]1(O)[C@H]2Cc3ccc(O)c4c3[C@@]1(CCN2CC1CC1)[C@@H]5O4 | inactive: -3.81% | 
NC(=S)Nc1ccccc1 |  | inactive
CCC(=O)O[C@H]1CC[C@H]2[C@@H]3CCC4=CC(=O)CC[C@]4(C)[C@H]3CC[C@]12C |  | active: 15.8 µM
Cc1ccc(N)cc1[N+](=O)[O-] | inactive: -7.62% | 
CC(C)CC(N)C1(c2ccc(Cl)cc2)CCC1 (stereo not drawn) | inactive: 21.9% | 
CC(Cl)Cl | inactive: -10.7% | 

Compound | activation | Potency
NCCc1c[nH]c2ccc(C(N)=O)cc12 | inactive: 1.37% | 
CC[C@H](CO)NC(=O)[C@H]1C=C2c3cccc4[nH]cc(c34)C[C@@H]2N(C)C1 | inactive: 6.42% [at 25.6 µM] | 
Oc1c(Cl)c(Cl)c(Cl)c(Cl)c1Cl (tested in a mixture with another compound) | inactive: 29.9% [at 11.4 µM] and inactive: 25.3% [at 11.4 µM] | 
COc1cc(C[C@H](C)N)c(OC)cc1I | inactive: 11.7% | 
O=[N+]([O-])c1ccc(O)c([N+](=O)[O-])c1 | inactive: 16.6% | 
O=C(O)C(Br)CBr (stereo not drawn) | inactive: -15.6% | 
O=C(CCCN1CCC2(CC1)C(=O)N(Cc1cccc(F)c1)CN2c1ccccc1)c1ccc(F)cc1 | inactive: -37% | 
CCCCCCCCCCCCCl | inactive: -17% | 
CN1C(=O)CCS(=O)(=O)[C@@H]1c1ccc(Cl)cc1 | inactive: -2.27% [at 25.6 µM] | 
CCCC/C=C/[C@@H](NP(=O)(c1ccccc1)c1ccccc1)c1ccccc1OC |  | active: 2 µM
CCOC(=O)CNC(=O)CSP(=S)(OCC)OCC | inactive: 7.63% | 
O=C(CCC1CCCC1)c1c(O)c2ccccc2oc1=O | inactive: 7.68% | 
CCCC(=O)Cl | inactive: 24% | 
C[C@@H](COc1ccccc1)N(CCCl)Cc1ccccc1 | inactive: 10.4% [at 25.6 µM] | 
Oc1cc(Cl)cc(Cl)c1Cl | inactive: 24.5% | 
O[C@H]1CCCC[C@H]1N1CCC(c2ccccc2)CC1 | inactive: 18.7% [at 25.6 µM] | 
CC(=O)NCCc1c[nH]c2ccccc12 | inactive: -2.88% | 
O=C(O)CCl | inactive: -33.2% | 
CP(=O)(O)CCCN |  | inactive
CCCCCCCCCCCOC(=O)c1ccccc1C(=O)OCCCCCCCCCCC | inactive: -17.9% | 
OCC(CBr)(CBr)CBr | inactive: 4.88% | 

Compound | activation | Potency
O=C(O)c1ccc(C(=O)O)cc1 | inactive: 20.6% | 
N[C@H](CP(=O)(O)O)C(=O)O | inactive: -0.313% | 
ClC(Cl)(Cl)Cl |  | inactive
CCOC(=O)c1c(C)n(CCOC)c2ccc(O)cc12 | inactive: -53.4% | 
N[C@H](CCP(=O)(O)O)C(=O)O |  | inactive
CN1[C@@H]2CC(OC(=O)[C@@H](CO)c3ccccc3)C[C@H]1[C@H]1O[C@H]12 (stereo partly drawn) | inactive: -6.54% | 
CC[N+](=O)[O-] | inactive: 10.6% | 
Nc1cccc2c(N)cccc12 | inactive: 17% | 
CCOP(=S)(OCC)Oc1cc(C)nc(C(C)C)n1 | inactive: -30.9% | 
c1ccc(N=NNc2ccccc2)cc1 | inactive: -5.21% | 
CC[N+](CC)(CC)CCOc1cccc(OCC[N+](CC)(CC)CC)c1OCC[N+](CC)(CC)CC | inactive: -3.44% [at 25.6 µM] | 
Nc1ccc(Oc2ccc(N)cc2)cc1 | inactive: -3.33% | 
COc1c2ccoc2cc2oc(=O)ccc12 |  | inactive
CC(C)NC[C@H](O)COc1cccc2[nH]ccc12 | inactive: 5.09% | 
O=Nc1ccc(Nc2ccccc2)cc1 | inactive: -21.2% | 
C(CCOCC1CO1)COCC1CO1 (stereo not drawn) | inactive: 25.4% | 
Cc1ccc([N+](=O)[O-])cc1C | inactive: -2.99% | 
C[C@]12CC[C@H]3[C@@H](CCC4=CC(=O)CC[C@@]43C)[C@@H]1CC[C@@H]2O | inactive: -31.7% | 
CC(C)c1ccc2c(c1)CC[C@H]1[C@@](C)(CN)CCC[C@@]21C | inactive: -6.92% [at 11.4 µM] | 
Cc1cccc([N+](=O)[O-])c1 | inactive: 3.48% | 
N#Cc1ccc(CN2CCCC3(CCN(C(=O)Oc4ccccc4)CC3)C2)cc1 |  | active: 15.8 µM
